Assay results as given in PubChem BioAssay AID1347120 (National Center for Advancing Translational Sciences (NCATS), 2019).
Out of some 390,000 compounds screened, about 930 (0.24%) were called active. Inconclusive results, whose numbers are uncertain, are shown with a selection of clear calls. The call rests on the fitted dose curve; in most records, active means well fitted activation curve with a large enough effect; inconclusive means small, poorly fitted or top-dose-only effect; inactive means no such curve, though single readings can be large or run the other way. A potency beside an inconclusive call is a rough fit, not a confirmed value. Bridge positions count the residues as written; N and C are the ends. Square brackets hold non-standard residues; d marks the D form. Peptide text beside a SMILES is read from it. * marks the point of attachment. X1 = CCC(C)C(N)C1=NC(C(=O)*)CS1; dOrn = NCCC[C@@H](N)C(=O)O

assay: qHTS for Suppressors of FUS Proteinopathy: Primary screen using FUS-linked yeast assay; further: nearly all actives have a fitted effect of over 55% in size; details: S. cerevisiae FUS-expressing, OD600, 24 h; Potency: growth rescue; series mostly up to 76.6 µM
In short: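 Read-out: OD at 600 nm after 24hr at 30C, reporting rescue of FUS-induced yeast toxicity. Cells at OD 0.005 in galactose (2%) minimal medium; compounds tested in a dilution series; CP55940 titration from 92uM final as control.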
Potency means the concentration at half of the fitted maximal effect; tags describe the fitted curve by direction and shape.

SMILES	Potency
CSc1ccccc1C(=O)C1CCCN(S(=O)(=O)N(C)C)C1 (configuration not stated)	inactive
CCCCCCSc1cc(-c2nc3cnccn3c2NCCCC)ccc1OC	inconclusive: 31.6 µM [activator, single point]
CCC(CC)C(=O)N1CCc2cc(OC)c(OC)cc2C1COc1ccc(C(=O)OC)cc1 (configuration not stated)	inconclusive: 7.08 µM [activator, partial curve, poor fit]
CCn1c(C)c(C)c2cc(C(=O)N3CCN(c4cccc(C)c4C)CC3)ccc21	inconclusive: 35.5 µM [activator, single point]
O=C(c1ccc(C(F)(F)F)cc1)N1CCC(=O)N([C@H](COCc2ccc(C(F)(F)F)cc2)Cc2ccccc2)CC1	inconclusive: 10 µM [activator, partial curve]
COc1cc(CN(C(=O)COc2ccccc2Cl)c2ccccn2)cc(OC)c1OC	inactive
COc1cccc(-c2nn(C)c3sc(C(=O)N4CCN(c5ccccc5)CC4)cc23)c1	inconclusive: 25.1 µM [activator, partial curve, poor fit]
CN(CC(=O)Nc1ccccc1Cl)C(=O)CCc1nc2ccccc2c(=O)[nH]1	inconclusive: 44.7 µM [activator, partial curve, poor fit]
CC(C)=CCc1c(O)c(CC=C(C)C)c2occ(-c3ccc(O)cc3)c(=O)c2c1O	inconclusive: 44.7 µM [activator, single point]
CCN(CC)c1ccc(C=Nc2ccc(C)cc2)c(O)c1	inactive
C=CS(=O)(=O)N(Cc1ccc(Cl)c(Cl)c1)C[C@@H](O)CO	inactive
CCC(C(=O)Nc1ccccc1)n1nc(-c2cc(C)ccc2C)ccc1=O (configuration not stated)	inactive
COc1ccc(NC(=O)C(c2ccncc2)n2c(=O)c(-c3cc4ccccc4[nH]3)nc3ccccc32)cc1 (configuration not stated)	inconclusive: 25.1 µM [activator, partial curve, poor fit]
COc1ccc(-c2nc(CCNC(=O)c3c(F)cccc3Cl)cs2)cc1	inactive
COc1cccc(NC(=O)CN(C)C(=O)CN2C(=O)NC(C)(c3ccc(C)cc3)C2=O)c1 (configuration not stated)	inconclusive: 35.5 µM [activator, single point]
COc1cc(OC)cc(-c2cc(N)n(S(=O)(=O)c3cccc4nsnc34)n2)c1	inconclusive: 39.8 µM [activator, single point]
C[C@@H]1COc2cc(F)ccc2S(=O)(=O)N1C	inactive
CCOC(=O)c1c(C)c(C(=O)NCc2ccco2)c(C)n1Cc1ccccc1	inconclusive: 39.8 µM [activator, partial curve, poor fit]
COc1ccc(NC(=O)c2cc3nc(-c4ccccc4)cc(C)n3n2)cc1OC	inconclusive: 39.8 µM [activator, partial curve, poor fit]

SMILES	Potency
COc1ccccc1NC(=O)Cc1cccs1	inactive
CCCCCC(=O)Nc1nc(C)c(-c2csc(Nc3cc(Cl)ccc3C)n2)s1	inconclusive: 31.6 µM [activator, single point]
COC(=O)c1ccc(NC(=O)CSc2nc(=O)cc(N)n2-c2ccccc2)cc1	inconclusive: 44.7 µM [activator, single point]
CCC(C)C(N)C1=NC(C(=O)N[C@@H](CC(C)C)C(=O)N[C@H](CCC(=O)O)C(=O)N[C@H](C(=O)N[C@H]2CCCCNC(=O)[C@H](CC(N)=O)NC(=O)[C@@H](CC(=O)O)NC(=O)[C@H](Cc3cnc[nH]3)NC(=O)[C@@H](Cc3ccccc3)NC(=O)[C@H]([C@@H](C)CC)NC(=O)[C@@H](CCCN)NC2=O)[C@@H](C)CC)CS1 (some centres not stated) (X1-L[dE]IK[dOrn]I[dF]H[dD]N; lactam 4-C)	inconclusive: 15.8 µM [activator, partial curve, poor fit]
COC(=O)[C@]12C[C@H](CC(=O)NCc3cccs3)C(=O)N(Cc3cccc4ccccc34)C1=C[C@H](COCc1ccccc1)O[C@@H]2C	inconclusive: 11.2 µM [activator, partial curve]
Cc1ccccc1Cn1cc(CN2[C@@H](Cc3ccccc3)COc3cc(Br)ccc3S2(=O)=O)nn1	inactive
CCCCC[C@H](C)N1C[C@@H](COCc2ccccc2)Oc2cc(N3CC[C@@H](N(C)C)C3)ccc2S1(=O)=O	inconclusive: 31.6 µM [activator, single point]
C#CCN(C[C@H]1[C@H](OC(=O)NC2CC2)[C@H](OC(=O)NC2CC2)C[C@H]2C(=O)N(c3ccccc3)C(=O)[C@@H]12)S(=O)(=O)c1ccc(C)cc1	inconclusive: 22.4 µM [activator, single point]
COC(=O)[C@@]12CCCN1[C@H](c1ccc(-c3ccc(F)cc3)cc1)[C@H]1C(=O)N(C)C(=O)[C@H]12	inconclusive: 20 µM [activator, single point]
Cc1cccc(NC(=O)[C@@H]2CC(=O)O[C@@H]2c2ccccc2)c1C	inactive
CCOC(=O)[C@]12CCCC3=C1N(CCC3)C(=O)[C@@H](CC(=O)NCCC(C)C)C2	inactive
COc1ccc(C2=NN3C(=O)c4c(ccc(OC)c4OC)C3C2)cc1 (configuration not stated)	inactive
COc1ccccc1N1CCN(S(=O)(=O)c2ccc3c(c2)NC(=O)CS3)CC1	inconclusive: 28.2 µM [activator, single point]
Cc1cc(C)cc(NC(=O)C2CCN(C(=O)c3cnn(-c4ccccc4)c3-n3cccc3)CC2)c1	inconclusive: 25.1 µM [activator, single point]
CCCCC(=O)Nc1ccc(C(=O)NNC(=S)NC(=O)c2ccccc2[N+](=O)[O-])cc1	inconclusive: 35.5 µM [activator, single point]
CCOC(=O)[C@@]12CN(C(=O)OC(C)(C)C)CC=C1N(Cc1ccc(OC)cc1)C(=O)[C@H]2CC(=O)N1CCCC1	inactive
COc1ccc(OC)c(-c2csc(N(CC3CCCO3)C(=O)Cc3ccccc3)n2)c1 (configuration not stated)	inconclusive: 17.8 µM [activator, partial curve, poor fit]
COc1ccc(CCNC(=O)c2cnc3sc(N4CCOCC4)nn3c2=O)cc1OC	inactive
